Out of some 110,000 compounds screened, about 230 (0.21%) showed an effect of 50% or more. The list shows a part of the results.
molecular target: DPAP1 (Plasmodium falciparum, UniProt Q8IIJ9); assay: primary screen, percent inhibition; read by cleavage of a fluorogenic dipeptide substrate; higher = more effect of the substance; set-up: species or system P. falciparum D10 trophozoite lysates; single well
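Further: 30 min substrate incubation versus DMSO and 10 µM JCP410 controls.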

DPAP1, sequence (Q8IIJ9 whole entry, looked up): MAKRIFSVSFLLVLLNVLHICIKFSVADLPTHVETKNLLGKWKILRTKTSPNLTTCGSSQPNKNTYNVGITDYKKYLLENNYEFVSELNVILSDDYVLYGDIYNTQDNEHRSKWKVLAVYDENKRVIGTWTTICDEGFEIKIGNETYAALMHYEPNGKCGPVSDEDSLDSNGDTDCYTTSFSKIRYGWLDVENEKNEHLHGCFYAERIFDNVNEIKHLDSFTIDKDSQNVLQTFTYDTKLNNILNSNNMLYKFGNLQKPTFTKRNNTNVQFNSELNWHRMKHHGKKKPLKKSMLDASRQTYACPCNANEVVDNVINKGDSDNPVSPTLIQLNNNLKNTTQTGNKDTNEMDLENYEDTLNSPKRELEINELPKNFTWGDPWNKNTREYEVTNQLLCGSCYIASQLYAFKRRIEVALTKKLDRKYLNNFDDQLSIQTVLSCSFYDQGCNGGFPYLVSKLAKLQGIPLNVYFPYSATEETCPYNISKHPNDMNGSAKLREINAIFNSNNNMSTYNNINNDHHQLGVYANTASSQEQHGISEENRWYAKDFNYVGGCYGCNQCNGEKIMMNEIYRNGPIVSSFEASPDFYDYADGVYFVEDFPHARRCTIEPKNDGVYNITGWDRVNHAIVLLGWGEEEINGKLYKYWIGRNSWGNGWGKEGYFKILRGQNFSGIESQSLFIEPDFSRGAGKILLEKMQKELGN

SMILES	% Inhibition @ 10 uM
Cc1ccccc1C(=O)Nc1ccc2c(c1)OCO2	1.89%
c1ccc(Oc2nc(-c3ccccc3)cc(-c3ccccc3)n2)cc1	-3.82%
CCCCOc1cccc(-c2[nH]c3c(C(=O)OC)cnn3c2NC2CCCC2)c1	2.79%
O=C(NCCCc1ccccc1)c1oc(=O)c2ccccc2c1-c1ccccc1	-6.67%
O=C1CSC(c2ccc(Cl)c(Cl)c2)N1CCc1ccccc1 (centres unmarked)	-4.31%
CCc1nnc(OCC(=O)NCCC2=CCCCC2)c2cc3cc(F)ccc3n12	1.63%
CC1=CC(C)C2(CO)COCC1C2C (centres unmarked)	3.15%
Cc1nccn1CCCNC(=O)C(=O)Nc1cccnc1Cl	-0.189%
CCNC(=O)C1CCCN(c2ncnc3c2nc2n3CCCCC2)C1 (centres unmarked)	2.59%
COc1ccc(CN2CCSCC2)c(OC)c1C	-1.98%
COc1ccc(C2C(C#N)=C(N)N(c3ccc(F)cc3)C3=C2C(=O)CC(C)(C)C3)cc1 (centres unmarked)	3.05%
Cc1sc(NC(=O)Cn2nc(C(F)(F)F)cc2C)nc1-c1ccccc1	1.61%
CCOc1ccc(NC(=O)C(C)(C)CC)cc1	-8.67%
O=C(c1cc(-c2ccccc2)[nH]n1)N1CCn2c1nc1ccccc12	-2.77%
O=C(COc1ccccc1Cl)Nc1ccc(N2CCN(C(=O)c3ccccc3)CC2)cc1	0.907%
CCN1/C(=c2/s/c(=C3/C(=O)NN=C3C)n(CC)c2=O)Sc2ccccc21	-1.44%
Cc1ccc2cnn(CC(=O)NCc3ccc(OC(C)C)cc3)c2c1	-4.71%
Cc1nnc(NC(=O)CSc2ccc3nnc(-c4ccccc4)n3n2)s1	-3.21%
CCOc1cc(/C=C2/C(=N)N3N=C(C(C)C)SC3=NC2=O)ccc1O	-2.87%
O=C(NCCc1ccccc1)c1ccc(-c2ccccc2)cc1	0.255%
CN1CCN(C(=S)SCCN2CCCC2=O)CC1	-8.13%
Cc1ccccc1OCC(=O)NC(C)(C)C	6.73%

SMILES	% Inhibition @ 10 uM
CC1CC(C)CN(C(=O)Nc2ccc(Cl)c(Cl)c2)C1 (centres unmarked)	4.11%
Cc1cc(OCC(=O)Nc2ccc(C#N)cc2)cc(C)c1Cl	0.00477%
CCOC(=O)C1=C(CNCCOC)NC(=O)NC1c1ccccc1 (centres unmarked)	-3.1%
CCOC(=O)c1ccc(-n2c(C)cc(C=C(C#N)C#N)c2C)cc1	4.95%
CCOC(=O)C1=C(CS(=O)(=O)c2ccc(C)c(C)c2)NC(=O)NC1c1ccc(O)c(OC)c1 (centres unmarked)	-3.94%
COCCNC(=O)Cn1ncc2c1-c1ccccc1OC2	3.32%
COc1cc(CN2CCN(Cc3ccc(Cl)cc3)CC2)cc(OC)c1	-5.56%
O=C(O)c1cc(-c2ccccc2)c(N2CCOCC2)s1	-1.03%
CCCCCOC(=O)C1=C(C)NC(=O)NC1c1cccc(OCc2ccccc2)c1 (centres unmarked)	24.8%
O=C(Nc1ccc(S(=O)(=O)Nc2ccc(Cl)c(Cl)c2)cc1)c1ccc(Br)o1	6.52%
CCSc1cc(N2CCOCC2)nc(-c2ccccc2)n1	-5.6%
C=Cc1ccc(Cn2c(C(=O)O)c(CNCc3ccc(C)cc3)c3ccc(OC)cc32)cc1	9.28%
N#CC1=C2SCN(CCN3CCOCC3)CN2C(=O)CC1c1ccc(F)cc1 (centres unmarked)	49.5%
COc1ccc2nc(O)c(-c3noc(-c4ccccc4C)n3)cc2c1	-7.33%
CCc1c(C)[nH]c(C(=O)OCc2ccccc2)c1C	2.65%
Cc1nn(Cc2ccc(F)cc2)c(C)c1NC(=O)c1cc(-c2ccc(F)cc2)on1	-2.65%
O=C(O)C1C2CCC(O2)C1C(=O)NCc1ccc(Cl)cc1 (centres unmarked)	-10.2%
O=C(NCCCN1CCOCC1)c1ccccc1O	6.73%
COc1cc(C2C(C#N)=C(N)Oc3[nH]nc(-c4ccc5c(c4)OCO5)c32)cc(Cl)c1O (centres unmarked)	-4%
CN(Cc1ccco1)S(=O)(=O)c1ccc(CN2C(=O)c3cccnc3C2=O)s1	-1.48%
O=C(C1COc2cc(S(=O)(=O)NCc3ccco3)ccc2O1)N1CCCCC1 (centres unmarked)	-3.04%
O=C(NCc1cn2ccsc2n1)c1c(F)cccc1Cl	-2.45%

SMILES	% Inhibition @ 10 uM
Cc1ccc2c(CNCc3cccs3)c(C(=O)O)n(Cc3ccccc3F)c2c1	5.61%
C=Cc1ccc(Cn2c(C(=O)O)c(CNCCc3cccs3)c3ccc(C)cc32)cc1	0.713%
CC(CNC(=O)C1CCN(C(=O)c2cnn(-c3ccccc3)c2-n2cccc2)CC1)c1ccccc1 (centres unmarked)	6.46%
CC(Cc1ccc(F)cc1)N1CCN(C)CC1 (centres unmarked)	3.48%
CCOc1ccc(-c2nc(SCC(=O)Nc3nccs3)c(-c3ccc(F)cc3)[nH]2)cc1	1.85%
Clc1ccc(CN2CCN(c3ccccc3)CC2)cc1	6.18%
Cc1nnc2ccc(N3CCN(c4ccccn4)CC3)nn12	2.6%
CC(C)CCNC(=O)CNC(=S)N1CC2CC(C1)c1cccc(=O)n1C2 (centres unmarked)	-2.26%
C[C@H](C[C@H](NC(=O)c1ccc(-c2ccccc2Cl)cc1)C(=O)NCC#N)c1ccccc1	2.87%
Cc1[nH]nc2c1C1(CCN(C(=O)c3ccccc3)CC1)C(C#N)=C(N)O2	-1.38%
COC(=O)c1cc2occc2n1Cc1nc(-c2cccc(C)c2)oc1C	-7.15%
Cc1ccc2ncc(NC(=O)NC3CCCCCC3)c(O)c2c1	43%
CC(NC(=O)c1ccccc1F)c1ccc2c(c1)OCCCO2 (centres unmarked)	0.475%
Cc1ccc(-c2scc(C)c2C#N)cc1	-1.06%
Clc1ccc(OCCSc2nnnn2C2CCCCC2)cc1	-1.26%
CCC(C)/N=c1/c(-c2cc(C)c(C)cc2C)c(O)c1=O (centres unmarked)	0.882%
CCOC(=O)N1CCN(CC2CC3C=CC2C3)CC1 (centres unmarked)	0.472%
COc1ccc(/C=C2\N=C(c3cncc(Br)c3)OC2=O)c(OC)c1OC	-2.41%
COc1cc(C2C(C(=O)c3ccc4c(c3)CC(C)O4)=C(O)C(=O)N2Cc2ccco2)ccc1O (centres unmarked)	2.53%
COc1cc(CN2CCOCC2)cc(OC)c1	-0.0494%
CCSC1=NSC2=NC(=O)/C(=C\c3ccc(C)o3)C(=N)N12	-2.12%

Source: paper PMC6919601, “Identification of Plasmodium dipeptidyl aminopeptidase allosteric inhibitors by high throughput screening” (PLoS ONE, 2019)
